Data: PubChem BioAssay AID485364 (National Center for Advancing Translational Sciences (NCATS), 2010)
The campaign covered roughly 360,000 compounds. About 11,000 (3.1%) were called active. Inconclusive means that the source gave no clear call. Such entries were picked first, then a sample of the others. The call rests on the fitted dose curve; in most records, active means well fitted inhibition curve with a large enough effect; inconclusive means small, poorly fitted or top-dose-only effect; inactive means no such curve, though single readings can be large or run the other way. Potencies of inconclusive entries are left out as doubtful fits.

Biological target: Schistosoma mansoni thioredoxin glutathione reductase (TGR) (UniProt Q962Y6)
Experiment: qHTS Assay for the Inhibitors of Schistosoma Mansoni Peroxiredoxins; further: nearly all actives have a fitted effect of over 60% in size
Conditions: purified TGR, DTNB reduction, TNB absorbance 405 nm; series mostly up to 114 µM
Method in brief: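 Kinetic colorimetric format: TGR-catalysed, NADPH-driven DTNB reduction monitored via TNB absorbance. Enzyme dispensed at 20 nM; compound exposure 15 min at room temperature before reaction start.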
Potency means the concentration at half of the fitted maximal effect; tags describe the fitted curve by direction and shape.

| Compound | Potency |
| --- | --- |
| Cc1cnccc1CN(C)Cc1cn(C)nc1-c1cccc(Cl)c1 | inconclusive [inhibitor, full curve, poor fit] |
| CNC(=S)N(CCc1ccc(OC)c(OC)c1)Cc1cc2c(C)cc(C)cc2[nH]c1=O | inactive |
| O=C(COc1ccc2ccccc2c1)N1CCN(C(=O)c2ccco2)CC1 | inconclusive [inhibitor, partial curve] |
| O=C(Nc1nnc(SCc2ccc(Cl)cc2)s1)c1ccco1 | inactive |
| CCCC(=O)NC(=S)Nc1cccc(NC(=O)c2ccccc2)c1 | inconclusive [inhibitor, full curve, poor fit] |
| CCOC(=O)c1c(C)[nH]c(C(=O)Cn2c(=O)oc3ccccc32)c1C | inactive |
| CS(=O)(=O)Nc1ccc(C(=O)NCCSCc2ccco2)cc1 | inconclusive [inhibitor, partial curve] |
| CCCOc1ccc(C(=O)CCC(=O)OCC(=O)Nc2cccc(S(N)(=O)=O)c2)cc1 | inactive |
| Cc1ccc(C(=O)O/N=C(\N)c2cccnc2)cc1[N+](=O)[O-] | inconclusive [inhibitor, single point] |
| Cc1ccc(Cn2c(/C=C/c3ccco3)nc3ccccc32)cc1 | active: 11.2 µM |
| COc1cccc(C(=O)NC2CCNCC2)c1 | inconclusive [inhibitor, partial curve] |
| CCN(CC)C(=O)c1cc([N+](=O)[O-])cc2c1-c1ccc([N+](=O)[O-])cc1C2=C(C#N)C#N | active: 3.98 µM |
| COc1ccc(CCNC(=O)CSc2ccc(Br)cc2)cc1OC | inactive |
| COc1ccc(C(=O)NC(=S)Nc2ccc(S(=O)(=O)Nc3cc(OC)ncn3)cc2)cc1 | active: 20 µM |
| CCN(CC)C(=O)CC(c1ccc(N(C)C)cc1)c1c(OC)cc(OC)c2ccc(=O)oc12 (configuration not stated) | inactive |
| O=[N+]([O-])c1cccc(CSc2nc3ccccc3[nH]2)c1 | inactive |
| O=C(Nc1cc(Cl)ccc1Cl)Nn1cnnc1 | inactive |
| N#Cc1nc(Cc2ccccc2)oc1NCCN1CCOCC1 | inactive |
| COC(=O)c1[nH]c(C)c(/C(O)=C2\C(=O)C(=O)N(CCN3CCOCC3)C2c2ccco2)c1C (configuration not stated) | inconclusive [inhibitor, partial curve] |
| COc1ccc(OCCOC(=O)CNC(=O)c2ccc(C)cc2)cc1 | inconclusive [inhibitor, partial curve] |
| CCc1ccc(NC(=O)c2ccc3nc(C(C)C)oc3c2)cc1 | inactive |
| CN(c1ccccc1)S(=O)(=O)c1ccc(Cl)c(C(=O)Nc2ccc(N3CCOCC3)cc2)c1 | inactive |
| O=C(CSc1nc(SCC(=O)NCc2ccccc2)n(-c2ccccc2)n1)NCc1ccccc1 | inconclusive [inhibitor, partial curve, poor fit] |
| CSc1nc(N)nc(SCC(=O)c2ccc(C)cc2)c1C#N | inconclusive [inhibitor, partial curve] |
| CCCCC(=O)Nc1cc(OCC)c(NC(=S)NC)cc1OCC | inconclusive [inhibitor, partial curve] |
| Cc1ccoc1C(=O)NCCCNC(=O)c1occc1C | active: 44.7 µM |

| Compound | Potency |
| --- | --- |
| CCCN1C(=O)c2[nH]nc(-c3cc(Cl)c(C)cc3O)c2C1c1ccc(O)c(OC)c1 (configuration not stated) | inactive |
| O=C(CCCC(=O)OCC(=O)c1ccc(Cl)cc1Cl)Nc1cc(C(F)(F)F)ccc1Cl | active: 89.1 µM |
| Oc1ccc(-c2csc(Nc3ccccn3)n2)c(O)c1 | inactive |
| O=C(CC1C(=O)CCCC1=O)c1ccccc1 | active: 39.8 µM |
| O=C(NN=C1C2CC3CC1CC(Cl)(C3)C2)c1ccccn1 | inactive |
| COc1cccc(/C=C/C(=O)OCC(=O)Nc2ccc(S(=O)(=O)N3CCCC3)cc2)c1 | inactive |
| CCOc1ccccc1C(=O)Nc1cccc2cccnc12 | inactive |
| CCN(CC)CCC/C(=N\O)C(O)(c1ccccc1)c1ccccc1 | inactive |
| CNC(=S)N/N=C/c1c(C)c(C(=O)c2ccc(F)cc2)n2ccccc12 | inactive |
| Cn1c(SCC(=O)NCc2ccco2)nnc1-c1ccccc1 | inconclusive [inhibitor, partial curve] |
| Cc1cc(C2C(C#N)=C(N)SC(N)=C2C#N)c(C)s1 | inconclusive [inhibitor, partial curve] |
| O=c1[nH]c(CN2CCN(c3ccccc3)CC2)nc2scc(-c3ccccc3)c12 | inactive |
| C=Cc1ccc(Cn2c(C(=O)O)c(CNCCc3ccco3)c3ccc(C)cc32)cc1 | active: 22.4 µM |
| O=C1CC(N2CC=C(c3ccc(F)cc3)CC2)C(=O)N1c1ccc(F)cc1 (configuration not stated) | active: 14.1 µM |
| CCOc1ccc(NC(=O)c2sc(-n3nc(C)c(CCC(C)C)c3C)nc2C)cc1 | inactive |
| CCCCc1nc2c(=O)[nH]c3ccccc3c2o1 | inconclusive [inhibitor, single point] |
| COc1ccc(-c2csc(NC(=O)C3CC(=O)N(c4ccc5c(c4)OCCO5)C3)n2)cc1 (configuration not stated) | inactive |
| CC(=O)c1ccc2c(c1)C1C(Cl)C(Sc3ccccc3[N+](=O)[O-])CC1C(C(=O)O)N2 (configuration not stated) | inconclusive [inhibitor, partial curve] |
| COc1ccc(OC)c(C2C(C(=O)c3ccc(C)o3)=C(O)C(=O)N2CCN2CCOCC2)c1 (configuration not stated) | inconclusive [inhibitor, partial curve] |
| COc1ccc2[nH]c(=O)c(CNc3ccccc3C)cc2c1 | inconclusive [inhibitor, partial curve] |
| O=C(Nc1ccc(N2CCOCC2)cc1)c1ccc([N+](=O)[O-])o1 | inconclusive [inhibitor, partial curve] |
| COc1ccc(-c2cc(C(=O)NC(Cc3c[nH]c4ccccc34)C(=O)O)c(C)o2)cc1OC (configuration not stated) | inconclusive [inhibitor, partial curve] |
| O=C(CSc1nc2ccsc2c(=O)n1Cc1ccc(C(=O)O)cc1)NCc1ccco1 | inconclusive [inhibitor, partial curve] |
| Cn1cccc1C1NC(=O)c2c(sc3c2CCC(C(C)(C)C)C3)N1 (configuration not stated) | inconclusive [inhibitor, full curve] |
| COC(=O)[C@]1(C)N[C@H](c2ccc(-c3ccc(Cl)c(Cl)c3)c(OC)c2)[C@@H]2C(=O)N(C)C(=O)[C@@H]21 | inconclusive [inhibitor, partial curve] |
| CCOc1ccc(S(=O)(=O)N2CCN(C(=O)c3ccncc3)CC2)cc1 | inactive |

| Compound | Potency |
| --- | --- |
| O=C(NC(=S)Nc1ccc(S(=O)(=O)Nc2nccs2)cc1)c1ccc(F)cc1 | active: 28.2 µM |
| Cc1cc(C)c(Cn2c(=O)n(CCC(=O)NCc3ccc4c(c3)OCO4)c(=O)c3ccccc32)c(C)c1 | inactive |
| COC(=O)c1c(-c2ccc(Cl)cc2)noc1N1CCN(c2ccccc2OC)CC1 | inactive |
| C=CCC(NCc1ccco1)c1ccc(OC)cc1 (configuration not stated) | inconclusive [inhibitor, partial curve] |
| CSc1nc(N2CCOCC2)nc2ccc(C)cc12 | inactive |
| Cc1onc(-c2c(Cl)cccc2Cl)c1C(=O)NC(=S)Nc1sc2c(c1C(N)=O)CCC(C)C2 (configuration not stated) | inconclusive [inhibitor, partial curve, poor fit] |
| O=C1C(=C2CCCCC2)SC(=S)N1Cc1ccco1 | active: 20 µM |
| COc1ccc(S(=O)(=O)CCC(=O)Nc2c(C)cccc2C)cc1 | active: 39.8 µM |
| CC(C)c1nc(SCC(=O)Nc2ccc(C(=O)O)cc2)c2c3c(sc2n1)CCCC3 | inconclusive [inhibitor, full curve, poor fit] |
| C[C@@H](CN1C2=NC[C@H](Cc3ccc(O)cc3)N2C[C@H]1Cc1ccc(O)cc1)NC(=O)CCC1CCCCC1 | inactive |
| Cn1cccc1/C=N/NC(=O)c1ccn[nH]1 | inactive |
| O=C(Nc1ccc(F)cc1)NC1CCN(Cc2nnnn2Cc2ccco2)CC1 | inconclusive [inhibitor, partial curve] |
| Cc1ccc(-c2sc(-c3cccnc3)nc2CC(=O)O)cc1 | active: 39.8 µM |
| CCSc1nnc(-c2cccs2)o1 | inactive |
| O=C1CC(N(O)C2CC(=O)N(Cc3ccccc3)C2=O)C(=O)N1Cc1ccccc1 (configuration not stated) | inconclusive [inhibitor, full curve] |
| O=c1cc(CO)oc(CN2CCN(c3ccccc3)CC2)c1O | inconclusive [inhibitor, single point] |
| Cc1cccc(NC(=S)NC2CCCC2)n1 | inconclusive [inhibitor, single point] |
| CC(C)N1CCC(N2CCN(CC#Cc3ccccc3)CC2CCO)CC1 (configuration not stated) | inconclusive [inhibitor, partial curve] |
| Cc1ccccc1N1CC(O)(c2cccs2)[N+]2=C1CCCC2 (configuration not stated) | inactive |
| CCOc1cccc(OCC)c2c(C)[n+](CC3CCCO3)c(C)c1-2 (configuration not stated) | inconclusive [inhibitor, partial curve] |
| CN(C)N=C1c2cc(S(=O)(=O)N3CCOCC3)ccc2-c2ccc(S(=O)(=O)N3CCOCC3)cc21 | inactive |
| COc1cccc(CNC(=O)c2ccc(-n3c(C)cc4c3CCCC4)cc2)c1 | inconclusive [inhibitor, partial curve] |
| Cc1ccc(-n2c(CCC(=O)O)ccc2-c2cccs2)cc1Cl | active: 7.94 µM |
| CN1CCN(C2=C(Cl)C(=O)N(c3ccc(Cl)cc3)C2=O)CC1 | inconclusive [inhibitor, partial curve] |
| c1ccc(Nc2ccc(Nc3ccccc3)cc2)cc1 | inconclusive [inhibitor, partial curve] |
